Experimental data as given in PubChem BioAssay AID1671188 (National Center for Advancing Translational Sciences (NCATS), 2021).
The campaign covered roughly 100,000 compounds. About 250 (0.25%) were called active. This list was built around the results that the source calls inconclusive (neither active nor inactive); the mix of calls is not that of the screen. Calls come from the whole dose curve; as a rule, active = well fitted inhibition curve with a large enough effect; inconclusive = small, poorly fitted or top-dose-only effect; inactive = flat fitted curve, though single readings scatter. A potency beside an inconclusive call is a rough fit, not a confirmed value. Square brackets hold non-standard residues; d marks the D form. Peptide text beside a SMILES is read from it. Ala(indol-2-yl) = N[C@@H](Cc1cc2ccccc2[nH]1)C(=O)O; Aib = CC(C)(N)C(=O)O

Target: Alanine aminotransferase 2 (Homo sapiens) (UniProt Q8TD30)
Assay: Primary qHTS assay for inhibitors of Glutamate pyruvate transaminase 2 (GPT2); note: nearly all actives have a fitted effect of over 60% in size
Conditions: Recombinant GPT2, coupled pyruvate oxidase/HRP Amplex Red fluorescence; activity change, negative = inhibition: at 57.7 µM (top of the series) unless noted; series mostly up to 57.7 µM
In short: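 Fluorescence of coupled pyruvate oxidase/HRP/Amplex Red system (50uM Amplex, 30 min, dark) reports pyruvate formed by GPT2. Enzyme reaction: 10ng/uL GPT2, 2mM L-alanine, 250uM a-KG, 30 min room temperature, pH 7.5; 50uM AOA control.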
% is set by controls: 0 for no effect and ±100 for the full control effect; potency is the fitted concentration of half-maximal effect; tags give direction and shape of the fitted curve.

UniProt Q8TD30, sequence (Q8TD30 whole entry, looked up): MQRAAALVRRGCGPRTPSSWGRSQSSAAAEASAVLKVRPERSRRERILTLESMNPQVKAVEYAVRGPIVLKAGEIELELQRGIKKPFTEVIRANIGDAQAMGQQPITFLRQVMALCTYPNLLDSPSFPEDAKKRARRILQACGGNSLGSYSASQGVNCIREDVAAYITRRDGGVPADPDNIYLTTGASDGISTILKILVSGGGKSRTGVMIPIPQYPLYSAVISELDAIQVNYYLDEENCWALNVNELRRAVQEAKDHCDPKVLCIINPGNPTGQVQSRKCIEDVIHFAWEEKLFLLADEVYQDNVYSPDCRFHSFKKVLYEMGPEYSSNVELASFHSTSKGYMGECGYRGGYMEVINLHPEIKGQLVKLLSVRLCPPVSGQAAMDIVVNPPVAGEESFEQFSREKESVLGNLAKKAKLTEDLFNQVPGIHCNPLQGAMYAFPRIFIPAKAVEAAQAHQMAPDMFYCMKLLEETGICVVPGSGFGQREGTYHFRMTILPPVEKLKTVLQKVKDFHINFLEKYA

Structure (SMILES) | Potency | activity change, negative = inhibition
CC(C)(NC(=O)[C@@H](N)Cc1ccc(O)cc1)C(=O)N[C@@H](Cc1cc2ccccc2[nH]1)C(=O)N[C@@H](Cc1ccccc1)C(=O)O (H-Y[Aib][Ala(indol-2-yl)]F-OH) | inconclusive: 3.98 µM [inhibitor, single point] | 
Oc1cccc2cccnc12 | inconclusive: 14.1 µM [inhibitor, single point] | 
COc1ccc(CC(=O)N2CCN(Cc3ccccc3-c3ccccc3F)CC2)cc1 | inactive | 
CCCCC(CC)COC(=O)c1ccccc1C(=O)OCC(CC)CCCC (stereo not given) | inconclusive: 15.8 µM [inhibitor, single point] | 
COCCOC1CCN(C(=O)c2nn(C)c3ccccc23)CC1 | inconclusive: 39.8 µM [inhibitor, single point] | 
Oc1ccc2c3c1O[C@H]1c4[nH]c5c(c4C[C@@]4(O)[C@@H](C2)N(CC2CC2)CC[C@]314)C[C@@]1(O)[C@H]2Cc3ccc(O)c4c3[C@@]1(CCN2CC1CC1)[C@H]5O4 | inconclusive: 28.2 µM [inhibitor, partial curve, poor fit] | 
CCCCCC(=O)N1C[C@H](C(=O)OCC)[C@H]2c3ccccc3N(CCO)C(=O)[C@]21C | inactive | 
C[C@H]1C/C=C/[C@H]2[C@@H]3O[C@]3(C)[C@@H](C)[C@H]3[C@H](Cc4ccccc4)NC(=O)[C@]32OC(=O)O/C=C/[C@@](C)(O)C1=O | inactive | 
CC1=CC2OC3CC(O)[C@](C)([C@@]2(C)C(O)C1=O)[C@]31CO1 (stereo not given in full) | inactive | 
CCC(C(=O)N1CCC(C#N)(c2ccccc2)CC1)n1cccn1 (stereo not given) | inactive | 
CC(C)(O)C=CC(=O)[C@](C)(O)[C@H]1[C@H](O)C[C@]2(C)[C@@H]3CC=C4[C@@H](C=C(O)C(=O)C4(C)C)[C@]3(C)C(=O)C[C@@]12C | inconclusive: 43.2 µM [inhibitor, partial curve, poor fit] | 
CC(=O)N1CC2(CCCN2Cc2ccccn2)Cc2ccccc21 (stereo not given) | inactive | 
CC(N)[C@H](O)c1ccc(O)c(O)c1 (stereo not given in full) | inconclusive: 14.1 µM [inhibitor, partial curve] | 
O=C1Nc2ccccc2CC12CN(Cc1cccnc1)C2 | inconclusive: 31.6 µM [inhibitor, single point] | 
OCC1CN(C2CCC2)CC12CCN(Cc1ccncc1)CC2 (stereo not given) | inconclusive: 3.16 µM [inhibitor, single point] | 
CCC(C)/C=C(C)/C=C/C1=CC2=C(Cl)C(=O)C(C)(OC(C)=O)C(=O)C2=CO1 (stereo not given) | inconclusive: 1.26 µM [inhibitor, full curve, poor fit] | 
CCCCC1CN2CCCC2CN1 (stereo not given) | inactive | 
NCCc1cc(O)c(O)cc1O | inconclusive: 20 µM [inhibitor, partial curve, poor fit] | 
CN1C2CCC1CC(OC(=O)N1Cc3ccccc3NC1=O)C2 (stereo not given) | inactive | 
C/C=C(\C)C(=O)OC1CC2C(CC=C3CC(OC4CC(OC)C(OC5CC(OC)C(OC6OC(C)C(OC7OC(CO)C(O)C(O)C7O)C(OC)C6O)C(C)O5)C(C)O4)CCC32C)C2(O)CCC(C(C)=O)C12C (stereo not given) | inconclusive: 1.12 µM [inhibitor, single point] | 
CC(C)N1C(=O)OCC12CCN(Cc1cccnc1)C2 (stereo not given) | inconclusive: 70.8 µM [inhibitor, single point] | 
C=C[C@H]1CN2CC[C@H]1C[C@@H]2CNS(=O)(=O)c1ccc(Cl)cc1 | inconclusive: 50.1 µM [inhibitor, single point] | 
CC(C)N1CC2CCC(C1)N2Cc1cccs1 | inconclusive: 4.47 µM [inhibitor, partial curve, poor fit] | 
Cc1cccc(C(=O)N2[C@H]3CC[C@@H]2c2cnc(C)nc2C3)c1 | inconclusive: 39.8 µM [inhibitor, single point] | 
COc1ccc(NC(=O)N2[C@H]3CC[C@@H]2c2cnc(-c4ccccc4)nc2C3)cc1OC | inconclusive: 39.8 µM [inhibitor, single point] | 

Structure (SMILES) | Potency | activity change, negative = inhibition
Oc1ccc2c3c1O[C@H]1c4[nH]c5ccccc5c4C[C@@]4(O)C(C2)N(CC2CC2)CCC314 (stereo not given in full) | inconclusive: 14.1 µM [inhibitor, partial curve] | 
C/C=C(\C)C(=O)OC1C2C3(C)CCC(OC4CC(OC)C(OC5OC(C)C(O)C(OC)C5O)C(C)O4)CC3CCC23OC32CCC(C(C)=O)C2(C)C1OC(=O)/C(C)=C/C (stereo not given) | inactive | 
CN1CCC(c2c[nH]c3ccc(O)cc23)CC1 | inconclusive: 1.41 µM [inhibitor, full curve, poor fit] | 
COC[C@H]1C[C@@H](NC2CCN(C)CC2)[C@H](O)[C@@H]1O | inconclusive: 35.5 µM [inhibitor, partial curve, poor fit] | 
CSCC(=O)Nc1ccc2n(c1=O)C[C@H]1C[C@@H]2CN(C(=O)COc2ccccc2)C1 | inactive | 
COc1nc2c(cc1CNC(=O)C1C(C)(C)C1(C)C)C(=O)N(C1CCCC1)C2 | inconclusive: 39.8 µM [inhibitor, single point] | 
Nc1ccc(Sc2ccc(N)cc2)cc1 | inconclusive: 63.1 µM [inhibitor, single point] | 
CCS(=O)(=O)N1[C@H]2CC[C@@H]1c1cnc(-c3ccc(F)cc3)nc1C2 | inconclusive: 39.8 µM [inhibitor, single point] | 
Cc1ncc2n1-c1ccc(Cl)cc1C(c1ccccc1F)=NC2 | inconclusive: 3.55 µM [inhibitor, single point] | 
Cc1c(C(=O)Nc2cccc(C(F)(F)F)c2)cc(-c2ccccc2)n1CCCN1CCOCC1 | inconclusive: 15.3 µM [inhibitor, single point] | 
O=C1Nc2ccccc2C12CCN(Cc1ccsc1)CC2 | inconclusive: 7.94 µM [inhibitor, single point] | 
CC[C@@H]1C[C@H]2CC[C@H](O2)[C@H](C)C(=O)O[C@@H](C)C[C@@H]2CC[C@@H](O2)[C@@H](C)C(=O)O[C@H](CC)C[C@H]2CC[C@H](O2)[C@H](C)C(=O)O[C@@H](C)C[C@@H]2CC[C@@H](O2)[C@@H](C)C(=O)O1 | inconclusive: 12.6 µM [inhibitor, single point] | 
COc1cc(OC(F)(F)F)ccc1C(=O)N1CCC(C(=O)O)(c2ccccc2)CC1 | inconclusive: 39.8 µM [inhibitor, single point] | 
O=C1c2ccccc2C(=O)C1C(=O)C(c1ccccc1)c1ccccc1 | inconclusive: 3.55 µM [inhibitor, full curve, poor fit] | 
C[C@]12CC[C@H](O)CC1=CC[C@@H]1C2CC[C@]2(C)[C@@H](C3=CC(=O)OC3)CC[C@]12O (stereo not given in full) | inconclusive: 1.26 µM [inhibitor, partial curve, poor fit] | 
CSCC(=O)N1C[C@@H]2C[C@H](C1)c1c(-c3ccc(NC(C)=O)cc3)ccc(=O)n1C2 |  | inconclusive: -30.4% [inhibitor] [at 88.5 µM]
C/C1=C/[C@@H](C)C/C=C/[C@H]2[C@@H]3O[C@]3(C)[C@@H](C)[C@H]3[C@H](Cc4c[nH]c5ccccc45)NC(=O)[C@]32C(=O)/C=C\C(=O)[C@@H]1O | inconclusive: 3.55 µM [inhibitor, single point] | 
Cc1ccc([C@H]2CN(C(=O)c3cc(C(C)C)on3)[C@@H]3C4CCN(CC4)[C@H]23)cc1 | inconclusive: 6.31 µM [inhibitor, single point] | 
CCC(CC)c1cc([C@H]2CN3CC[C@H]2C[C@@H]3COC(=O)Nc2ccccc2)nc(-c2ccncc2)n1 | inconclusive: 39.8 µM [inhibitor, single point] | 
Cc1ncc2c(n1)C[C@@H]1CC[C@H]2N1S(=O)(=O)c1ccc(F)c(C)c1 | inactive | 
C=CCN1CCc2cccc3c2[C@H]1Cc1ccc(O)c(O)c1-3 | inconclusive: 39.8 µM [inhibitor, single point] | 
Cc1ccc(S(=O)(=O)NC[C@H]2C[C@@H]3CCN2C[C@@H]3CN2CCc3ccccc32)cc1 | inconclusive: 6.31 µM [inhibitor, full curve] | 
NCC(O)c1cc(O)c(O)cc1F (stereo not given) | active: 10 µM | 
CCCCOC(=O)c1ccccc1C(=O)OCc1ccccc1 | inconclusive: 8.91 µM [inhibitor, single point] | 
CC(C)NC(=O)OC[C@H]1C[C@@H]2CCN1C[C@@H]2c1cc(-c2ccc3ccccc3c2)nn1C | inconclusive: 10 µM [inhibitor, full curve, poor fit] | 
